In PubChem BioAssay AID248 (DTP/NCI, 2004):
Toxic doses and inconclusive results are not listed. No stated cut-off is given here; in the data, active means T/C of 150% or more; inactive means T/C below 125%.

Tested on: L1210 leukemia ip in BDF1 mice, survival T/C
Experiment: NCI In Vivo Anticancer Drug Screen. Data for tumor model L1210 Leukemia (intraperitoneal) in B6D2F1 (BDF1) mice
Conditions: endpoint: mean survival time, schedule: Q01DX001 (ip), higher = longer survival
Summary of the method: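 Mice bearing the transplanted tumor received compound or vehicle. Survival of the treated group was divided by that of the vehicle-treated control group to give the ratio.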

Measured: T/C

O=C(/C=C/c1ccccc1)Nc1ccccc1
inactive: dose: 50.0 mg/kg/injection, vehicle: other 96 % of control | dose: 100.0 mg/kg/injection, vehicle: other 100 % of control | dose: 200.0 mg/kg/injection, vehicle: other 90 % of control | dose: 400.0 mg/kg/injection, vehicle: other 102 % of control

CCCCCCCCc1ccc(O)cc1
inactive: dose: 100.0 mg/kg/injection, vehicle: saline with Tween-80 = 105 % of control | dose: 200.0 mg/kg/injection, vehicle: saline with Tween-80 = 105 % of control | dose: 400.0 mg/kg/injection, vehicle: saline with Tween-80 = 102 % of control
